The whole screen tested about 110,000 compounds, of which about 230 (0.21%) showed an effect of 50% or more. Some of the results follow.
target: DPAP1 (Plasmodium falciparum, UniProt Q8IIJ9); experiment: primary screen, percent inhibition; read by cleavage of a fluorogenic dipeptide substrate; higher = more effect of the substance; design: species or system P. falciparum D10 trophozoite lysates; single well
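Also: 30 min substrate incubation versus DMSO and 10 µM JCP410 controls.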

DPAP1, sequence (Q8IIJ9 whole entry, looked up): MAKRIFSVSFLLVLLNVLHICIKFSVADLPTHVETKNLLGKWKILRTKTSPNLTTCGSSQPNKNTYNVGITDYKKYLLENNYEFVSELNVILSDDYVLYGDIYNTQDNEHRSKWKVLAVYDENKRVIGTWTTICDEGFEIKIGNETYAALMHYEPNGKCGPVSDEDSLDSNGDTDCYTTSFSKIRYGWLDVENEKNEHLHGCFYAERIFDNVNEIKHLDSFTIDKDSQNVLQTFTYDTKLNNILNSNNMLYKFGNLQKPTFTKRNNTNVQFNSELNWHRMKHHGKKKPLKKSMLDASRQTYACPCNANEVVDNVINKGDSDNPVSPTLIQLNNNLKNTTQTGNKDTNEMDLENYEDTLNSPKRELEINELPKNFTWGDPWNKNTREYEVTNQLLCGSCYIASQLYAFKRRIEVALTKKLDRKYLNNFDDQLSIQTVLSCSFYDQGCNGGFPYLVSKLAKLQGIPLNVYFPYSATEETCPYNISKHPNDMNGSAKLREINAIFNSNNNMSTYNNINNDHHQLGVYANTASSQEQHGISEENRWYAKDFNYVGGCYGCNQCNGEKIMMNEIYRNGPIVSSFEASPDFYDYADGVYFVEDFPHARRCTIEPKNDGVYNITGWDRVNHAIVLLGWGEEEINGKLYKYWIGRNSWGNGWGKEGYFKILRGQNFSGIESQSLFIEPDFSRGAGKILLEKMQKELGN

SMILES | % Inhibition @ 10 uM [%]
Cc1ccc(C)c(OCC(=O)N2CCN(c3ccccn3)CC2)c1 | -3.96
CCCCn1c2nc3ccccc3nc2c2c(N)ncnc21 | -3.41
CC(C)CNS(=O)(=O)c1ccc(OCC(=O)Nc2ccc3c(c2)OCCO3)cc1 | -5.81
CCCC[C@H](NC(=O)[C@H](CC(C)C)NC(=O)OCc1ccccc1)C(=O)CC(=O)OCC | 0.174
Sc1nnc2n(CCOc3ccccc3)c3ccccc3n12 | -2.29
CN(C)C(CNC(=O)NC1CCCCC1)c1cccnc1 (stereo not drawn) | -3.51
COc1cc(C2C(C#N)=C(N)Oc3[nH]nc(-c4cccs4)c32)cc(OC)c1OC (stereo not drawn) | -6.59
COCCN1C(=O)c2[nH]nc(-c3ccccc3O)c2C1c1ccc(OCC(C)C)c(OC)c1 (stereo not drawn) | 0.155
COc1cc(NC(=O)c2cc3nc(C(F)F)cc(C(F)F)n3n2)cc(OC)c1OC | 0.389
CCN(CC)C(=O)c1ccc(NC(=O)c2ccccn2)cc1 | -0.884
CN1CCN(C(=O)c2cc(-c3ccc(O)cc3)on2)CC1 | 1.37
Cc1cccc(C(=O)Nc2cc(-c3ccccc3)no2)c1 | -1.47
CCOc1ccc(-c2cc(C(=O)O)c3cc(Br)ccc3n2)cc1 | 7
CC(=O)OCC12COC(C)C(C1)C(C)=CC2C (stereo not drawn) | 1.29
CC(C)CC(C(=O)NCC#N)c1cccc(-c2ccc([N+](=O)[O-])cc2)c1 (stereo not drawn) | 0.173
COCCCNc1nc2ccc(C)cc2n2cnnc12 | -2.42
COCCNC(=O)c1ccc(CS(=O)(=O)c2ccccc2OC)o1 | -3.09
Clc1ccc(OCc2nc(-c3ccccc3)no2)cc1 | 1.96
O=C(NCc1cccc(CNC(=O)C2CCCC2)c1)C1CCCC1 | -1.84
CCCCCCCCOc1ccc(/C=C(\C#N)c2nc(-c3ccccc3)cs2)cc1 | 1.41
Cc1cc(C)nc(SCC(=O)Nc2ccc(Cl)c(Cl)c2)n1 | -5.85
Cc1cccc(CCNC(=O)Cc2c(C(=O)O)[nH]c3ccccc23)c1 | 0.121

SMILES | % Inhibition @ 10 uM [%]
CC1(c2ccccc2)CC(C)(C)N(C(=O)CN2C(=O)CCC2=O)c2ccccc21 (stereo not drawn) | -5.13
c1ccc(CNc2nc(N3CCOCC3)nc3ccccc23)cc1 | 4.74
NS(=O)(=O)c1ccc(N2C(=O)C3C4c5ccccc5C(c5ccccc54)C3C2=O)cc1 (stereo not drawn) | -6.71
Cc1cc2oc(C(=O)Nc3sc4c(c3C(=O)NCc3cccnc3)CCCC4)cc(=O)c2cc1C | 1.9
CSCCC(C#N)NC(=O)[C@H](CC(C)C)NC(=O)OCc1ccccc1 (stereo partly drawn) | 0.174
CCNS(=O)(=O)c1cccnc1N1CCN(C(C)C)CC1 | -7.62
NC(=O)c1ccc(C(N)=O)c(-c2ccccc2)c1 | -0.0369
CCN(CC)C(=O)c1cc(-c2ccccc2O)on1 | -1.21
Cc1ccc(NC(=O)c2c(-c3ccccc3)noc2C)c(C)c1 | -3.97
COc1cc(OC)cc(C(=O)Nc2cccc(NC(C)=O)c2)c1 | -4.59
O=C(Cn1ncc2c3ccccc3nc-2c1O)NC1CCN(Cc2ccccc2)CC1 | -4.51
COc1cc(SC#N)ccc1/N=C/c1c(C)nn(-c2cccc(Cl)c2)c1O | 5.31
C=CCC(CC=C)(NC(=O)c1cccc(C)c1)c1ccccc1 | -1.84
CC1CC(C)CN(C(=O)c2cc3c(s2)-c2ccccc2S(=O)(=O)C3)C1 (stereo not drawn) | 2.84
CCOc1ccccc1CNCc1c(C(=O)O)c(C)n(Cc2ccccc2F)c1C | 1.41
CC(=O)Nc1ccc(N2C(=O)c3cccc(NC(C)=O)c3C2=O)cc1 | 1.96
CCNC(=O)/C(C#N)=C/c1ccc(C(C)(C)C)cc1 | 6.51
COc1cc(CN2CCCC(O)C2)cc2c1OCO2 (stereo not drawn) | 0.634
COc1cccc(/C=c2\sc3nc(-c4ccc(C)cc4)nn3c2=O)c1OC | -3.33
COc1ccccc1CC(C)N[C@H]1CC[C@H](O)CC1 (stereo partly drawn) | -1.81
NS(=O)(=O)c1cccc(S(=O)(=O)c2ccc(Cl)c(Cl)c2)c1 | -3.27
CC(=O)Nc1ccc(S(=O)(=O)Nc2sc3c(c2C(N)=O)CCCCCC3)cc1 | 1.25

SMILES | % Inhibition @ 10 uM [%]
c1ccc(-c2cnc(N3CCOCC3)nc2)cc1 | 1.72
Cc1ccccc1NCN1C(=O)C2CC=CCC2C1=O (stereo not drawn) | -1.84
Cc1ccc(C2=NC(C)(C)NC2=S)cc1 | 8.4
CCCCOC(=O)c1ccc(NC(=O)c2ccco2)cc1 | -4.06
CCCCN(CCCNC(=O)c1cc(O)nc2ccccc12)Cc1ccccc1 | -1.34
CC1CCc2c(sc(NC(=O)c3ccco3)c2C(N)=O)C1 (stereo not drawn) | -4.03
CC(NS(=O)(=O)c1ccc2c(c1)C(=O)c1ccccc1C2=O)c1ccccc1 (stereo not drawn) | 3.39
O=c1cccc2n1C[C@H]1C[C@@H]2CN(Cc2cccc(Cl)c2Cl)C1 | -1.59
Cc1ccccc1C(=O)NCC1CCCO1 (stereo not drawn) | -7.84
COc1ccc(C(=O)CSc2nc(O)cc(O)n2)cc1 | 0.266
Cc1c(Br)c(C(=O)Nc2sc3c(c2C(N)=O)CCC3)nn1C | -3.03
CCOc1ccccc1N1CCN(C(=O)c2ccc(F)cc2)CC1 | -3.72
CC(C)(C)Nc1c2ccccc2nc2ccccc12 | -2.9
NC1=C([N+](=O)[O-])C(=O)c2ccccc21 | -0.197
O=C(NCc1ccco1)C1CCCN(c2cnccn2)C1 (stereo not drawn) | 2.29
Cc1cccc(OCCCn2c(C(C)O)nc3ccccc32)c1 (stereo not drawn) | -2.17
CCOC(=O)C1=C(CSc2nc(C)cc(COC)c2C#N)NC(=O)NC1c1ccc2c(c1)OCO2 (stereo not drawn) | 2.99
Cc1ccc(C(=O)N(CCO)C2CCCCC2)cc1 | 0.215
COc1cccc(/C=C(\C#N)c2nc(-c3ccc(Br)cc3)cs2)c1 | -4.3
CCOC(=O)c1ccc(OCC2c3cc(OC)c(OC)cc3CCN2C(=O)C(C)C)cc1 (stereo not drawn) | -5.93
CCCNC(=O)C1CCN(S(=O)(=O)c2cc(Cl)ccc2Cl)CC1 | 2.43
Cc1ccc2c(CNCc3ccc4c(c3)OCO4)c(C(=O)O)n(Cc3ccc(F)cc3)c2c1 | -0.959

Source: publication PMC6919601, “Identification of Plasmodium dipeptidyl aminopeptidase allosteric inhibitors by high throughput screening” (PLoS ONE, 2019)
